Assay results reported in the RNAGym collection of RNA variant scans (doi:10.7554/elife.90254).
The source gives no read counts; variants with many changes may rest on few reads.

B1: LINE1-mini (parent)
chain: GGCAGAGCUCAACACAGCGUGGCAAAGUGGCUGUGGCUAGACUGCC

Variants of: B1
Assay: self-cleavage, relative activity (ratio to wild type); higher = more cleavage; in vitro, sequencing; the parent is a self-cleaving ribozyme

Row | Variant | self-cleavage
1 | A14G G21C C23G U28G G33A | 0.02
2 | A14G C15A U34A C37A | 0.01
3 | A14G G21A A24C G33C C37U A41C | 0
4 | A14G U34C U38C | 0.07
5 | A14C G22A C45A | 0.04
6 | A14C G19U G22C | 0.06
7 | A14G G19C C37A | 0.05
8 | A14G G35U G40A C42U | 0.01
9 | C13U U32C C46A | 0.01
10 | C13U U32C C46G | 0.06
11 | C13U U20G U38C | 0
12 | C13U U20A G29C C42U | 0.02
13 | A14G A16G C18U A25C A26U | 0.03
14 | A14C U20G G27C G29U | 0.03
15 | A14C C31A C45U | 0.05
16 | A14G G19A A25C G33A A39U | 0.13
17 | A14C G17U G27U G36U | 0.1
18 | A14C G22A C31A U43A | 0.02
19 | A14C G22C G30A | 0.18
20 | C13U G22C U43A | 0.03
21 | A14C G17U U28G | 0.08
22 | A14G C18A U28G C31A U38A C45G | 0
23 | A14G C37A G44U | 0.07
24 | C13U G29U A39C | 0.1

Row | Variant | self-cleavage
25 | A14G G40C C45G | 0.12
26 | A14C C31A G36C | 0.06
27 | A14C U20G A26U U28C G33A | 0.01
28 | A14C C23A U32C U43G | 0.07
29 | A14C G40U C45A | 0.07
30 | C13U U20A U38C | 0.04
31 | A14G G17A A25C G33C G36C | 0.02
32 | A14C G30C U34C C37G C46G | 0.02
33 | A14G G19U G33A A39G | 0.06
34 | A14C G30A C31U U32A | 0.04
35 | A14G C18G U28G | 0.05
36 | A14G U20G U34A | 0.02
37 | A14C C18A G21U U32G G44C | 0.03
38 | A14G G19A U28G C42G | 0.02
39 | C13U G36A C46U | 0.18
40 | A14G U20A G21C | 0.45
41 | C13U G22U G40C | 0.02
42 | A14C A16U G22U U32C C37G U43A | 0.02
43 | C13U G27A G40C | 0.19
44 | A14C C18U G29U | 0.06
45 | A14U A16C G22U G35U | 0.07
46 | C13U U20A A39U | 0.15
47 | A14C G21U C31A A39G | 0.01
48 | A14G A16C G17U C31U | 0.06

Row | Variant | self-cleavage
49 | A14U A16G C37U | 0.12
50 | C13U G33A C46A | 0.03
51 | A14C G21A G27U C31A C46U | 0.02
52 | A14C C31A G35A | 0.02
53 | A14G G21A G22C C23U A26G G33A | 0.03
54 | A14G G29U G36C G44C | 0.05
55 | A14C G19U A26G U32A A41G | 0.05
56 | A14G C23U A26C C37A C42A G44U | 0.12
57 | A14C G21C A25C G30C | 0.04
58 | A14C C18A A25U U43G | 0
59 | A14C G27A G33C C42A C45G | 0.02
60 | A14C G22A A26C | 0.03
61 | A14C G44A C45U | 0.06
62 | C13U U20A G22U C23A C31G G36C | 0.01
63 | C13U G33A G35C | 0.06
64 | A14C G29A C31A G40C A41C | 0.05
65 | A14G G19A G21A | 0.75
66 | A14G G22U C31G | 0.18
67 | A14C U20A C46A | 0.13
68 | A14C C18U G22A C42A | 0.05
69 | A14G G17A A25U A26G | 0.03
70 | A14G U32G C37A | 0.05
71 | A14C C23U C42U | 0.17
72 | A14G C23A U34G | 0.09

Row | Variant | self-cleavage
73 | A14C C15G C18U C31U | 0.01
74 | A14G C23A G30A | 0.56
75 | A14G U34G G35U G40U C45A C46U | 0
76 | A14C G21C C37G | 0
77 | C13U G29C A39U | 0.06
78 | A14G C15U A26C G29U U32C | 0.2
79 | A14C A16G G21A G35A | 0.02
80 | A14C G17C U20A U28A C31A | 0.02
81 | A14C G19A C31U | 0.03
82 | A14G G33C C46A | 0.03
83 | C13U G29U U32C | 0.15
84 | C13U U20G G21C | 0.1
85 | A14C G19A U34C G40A C42G C45U | 0.04
86 | A14G U20C G36C | 0.19
87 | C13U G22U A26C G29A G33U | 0.06
88 | C13U G22U G33C U34A G36U | 0.03
89 | A14U A16C G33U G36A | 0.03
90 | A14C C31G G33A | 0.04
91 | A14C A24U G27U G44U | 0.2
92 | A14G G22U A25C U34G | 0.19
93 | A14G G22A G29U | 0.09
94 | A14C A26C G40A | 0.01
95 | A14C C23A A41U | 0.12
96 | A14C G22C C23U C45G | 0.01

Row | Variant | self-cleavage
97 | A14G C15A G17U G19C G22A | 0.12
98 | A14C G17U A25C | 0.04
99 | A14C G17U A25U | 0.06
100 | C13U U28C A39C | 0.06
101 | A14C G17U C45U | 0.01
102 | A14C G29U G35U | 0.02
103 | A14C C18U C23A U32G | 0.13
104 | A14G A39C G40A U43A | 0
105 | A14G G21A U34A U43C | 0
106 | A14C A24G G33C C37A C46G | 0.02
107 | C13U G29U G33A | 0.07
108 | C13U U20G A26C G30A | 0.06
109 | A14C G33C G35C | 0.05
110 | A14C A24G C31G G35C U38G | 0.01
111 | A14C G17C U43A | 0.1
112 | A14G A26C C42U | 0.14
113 | A14C U34G C42U | 0
114 | A14G G17U A24G | 0
115 | A14G G22U A26C G36U | 0.18
116 | A14C C18A G22U A24C G27A G35U U43C | 0.01
117 | A14G G22A G44C | 0.08
118 | A14C G17U U38G | 0
119 | A14G C31U C37A G40U | 0.01
120 | A14C U28A A41C | 0.01

Row | Variant | self-cleavage
121 | A14G G33U G44U | 0.09
122 | A14U A16G G27U C42U U43G | 0.07
123 | C13U G22U C37A U38G | 0.03
124 | A14C C37A C42U U43C | 0.07
125 | A14C G36U C46U | 0.04
126 | A14G G19U G27C A39U | 0.15
127 | A14G G29C G36A C37A C42A C45U | 0.1
128 | A14C C18A G40A C45G | 0.25
129 | A14G G22U A26U U38C A41C | 0.02
130 | A14C C23U A24U G40A | 0.04
131 | A14C C18U G33U | 0.05
132 | A14G C15G A24C G40U | 0
133 | A14C G27C A41U C45G | 0.12
134 | A14C U28A G35U | 0.03
135 | C13U G27U U38G | 0.01
136 | C13U G22U C23A | 0.15
137 | A14G A16C G21U A25G G33U | 0.01
138 | A14G G19U C23U C31G | 0.05
139 | A14C G29U G33U G40A C45G | 0.06
140 | C13U G29A G35C | 0.13
141 | A14G A16G G17A G36C | 0.03
142 | A14U A16C G21C A24G | 0.02
143 | A14G C23A G44A | 0.07
144 | A14C A24U U32C U34C C37U A39G C45A | 0.01

Row | Variant | self-cleavage
145 | A14G A26U U32C C37U | 0.03
146 | A14G U34G C42A | 0.03
147 | A14C C15U C23A C45A C46U | 0.13
148 | A14G U20C A24U U43C | 0.03
149 | C13U U32C C45G | 0.13
150 | C13U G33A U43C | 0.26
151 | A14C U20C G21C C37U C45A C46U | 0
152 | A14C C18G A24G C31A G36A G44U | 0.05
153 | A14G G27U U38G | 0.01
154 | A14C G29C U38G | 0
155 | A14G G17U U28G U32A U34C | 0.01
156 | A14G G17C A26G G44A | 0.03
157 | A14C U38G A41U C42A | 0.02
158 | A14C G19U C31U C45A | 0
159 | A14C C37G U38G C42G | 0.02
160 | C13U U34C G40C | 0.01
161 | A14C G17U A24U G33A C42U | 0.15
162 | C13U G27U C31G | 0.08
163 | C13U G27U C31U | 0.08
164 | C13U G27C C42G | 0.38
165 | A14G G17A U38A | 0.07
166 | C13U G22U G33A | 0.16
167 | A14C G17A G33A | 0.03
